Assay results taken from PubChem BioAssay AID488969 (Vanderbilt High Throughput Screening Facility, 2010).
In all, about 110,000 compounds were measured (“z-score”: median about -0.1, highest 2% from about 2 on). Some of the results follow. Activity calls are given as the source filed them.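 The calls were made as follows: active = z-score in the third read window above 3 or below -3; inactive = the rest.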

Each compound was assayed against Metabotropic glutamate receptor 8 (Rattus norvegicus) (UniProt P70579) (assay: mGluR8 Gi/Go-coupled signaling modulation – cell-based, rat, thallium flux, HTS, primary screen (AID 488969)). Conditions: HEK293 rat mGluR8, GIRK (G protein-gated inwardly rectifying potassium channel) thallium flux, FluoZin2; at 10 µM; stronger effect = higher value; submaximal glutamate (EC20) added with thallium.
Chain of UniProt P70579 (P70579 whole entry, looked up): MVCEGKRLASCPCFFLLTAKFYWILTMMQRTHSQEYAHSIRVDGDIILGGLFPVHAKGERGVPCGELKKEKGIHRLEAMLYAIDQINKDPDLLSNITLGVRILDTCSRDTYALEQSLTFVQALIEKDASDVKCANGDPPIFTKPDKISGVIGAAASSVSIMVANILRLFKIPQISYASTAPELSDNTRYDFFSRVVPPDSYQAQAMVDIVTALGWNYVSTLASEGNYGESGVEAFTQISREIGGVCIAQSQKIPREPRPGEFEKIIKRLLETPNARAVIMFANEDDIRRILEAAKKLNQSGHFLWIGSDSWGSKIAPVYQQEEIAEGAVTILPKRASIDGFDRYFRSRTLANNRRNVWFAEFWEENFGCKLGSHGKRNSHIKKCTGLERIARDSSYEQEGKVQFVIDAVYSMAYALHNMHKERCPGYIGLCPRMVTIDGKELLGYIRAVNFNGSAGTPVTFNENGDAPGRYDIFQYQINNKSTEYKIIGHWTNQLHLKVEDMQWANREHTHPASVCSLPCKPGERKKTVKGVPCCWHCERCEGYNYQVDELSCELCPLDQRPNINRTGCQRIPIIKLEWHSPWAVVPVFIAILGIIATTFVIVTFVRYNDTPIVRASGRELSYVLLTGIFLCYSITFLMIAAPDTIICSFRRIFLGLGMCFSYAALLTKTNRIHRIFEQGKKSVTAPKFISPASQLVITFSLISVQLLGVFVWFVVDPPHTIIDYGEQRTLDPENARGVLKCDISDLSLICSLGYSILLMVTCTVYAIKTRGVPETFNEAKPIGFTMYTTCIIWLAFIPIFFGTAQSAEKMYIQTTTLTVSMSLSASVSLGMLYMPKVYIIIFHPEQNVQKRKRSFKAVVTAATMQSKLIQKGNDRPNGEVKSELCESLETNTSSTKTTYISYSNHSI

SMILES	z-score
CC(=O)Nc1c(C#N)c(C(C)(C)C)cn1C	0.449
CCn1c(SCC(=O)Nc2cc(C)on2)nnc1-c1ccco1	0.0545
CNC(=O)COC(=O)c1nc(-n2nc(C)cc2C)ccc1Cl	-0.115
CCC(=O)Nc1nnc(-c2ccncc2)s1	0.0463
O=C(CSc1nc(-c2ccco2)cc(C(F)(F)F)n1)Nc1ccc2c(c1)OCO2	-0.308
O=c1c2ccccc2nc2n1CCN2	0.253
O=C(Nc1ccccc1)c1ccc(OC(=O)c2cc3ccccc3o2)cc1	-0.284
COCCCNC(=O)c1ccccc1Oc1ccccc1	-0.0104
CCCCOc1ccc(NC2=NC3(CCCCC3)N=C(N)N2)cc1	-0.113
COc1ccc(CCNC(=O)CN2CCN(c3cccc(C(F)(F)F)c3)CC2)cc1	-0.129
C=CCOc1ccc2c(OC)c3ccoc3nc2c1OC	0.395
CCCNC(=O)CN1C(=O)NC2(CCCc3cc(OC)ccc32)C1=O (configuration not stated)	0.324
Cc1ccc(S(=O)(=O)NCCC(=O)NCc2ccccc2)cc1	-0.0179
O=C(CCS(=O)(=O)c1ccc(Br)cc1)Nc1ccc2c(c1)OCO2	0.326
COc1ccccc1C1(CC(=O)N2CCOCC2)CCOC(C(C)C)C1 (configuration not stated)	0.121
CSc1nsc(SCC(=O)Nc2c(C)n(C)n(-c3ccccc3)c2=O)n1	-0.133
CCCCCOC(=O)Nc1nnc(CCCCC)s1	-0.221
COc1ccc(C(NC(=O)c2cccc(F)c2)c2ccccc2)cc1 (configuration not stated)	-0.165
CCOC(=O)c1cnc(-c2ccccc2)nc1Oc1ccc(C)cc1	2.4

SMILES	z-score
COc1ccc(/C(N)=N/OC(=O)Oc2ccccc2)cc1	0.353
Cn1cccc1/C=N/NC(=O)c1ccc(OC(F)(F)C(F)F)cc1	-0.413
Cc1ccc(NC(=O)C(c2ccccc2)C2CCCC2)cc1 (configuration not stated)	active: 3.36
CCOC(=O)C1=NN(c2ccc(Cl)cc2)C(c2ccccc2)CC1=O (configuration not stated)	-0.352
O=C(CN1C(=O)COc2ccccc21)N1CCc2ccccc2C1	-0.00361
COCCNC(=O)/C(C#N)=C1\N=C(N)c2ccccc21	0.0573
Cc1ccccc1OCCCn1c(=O)sc2ccccc21	0.121
CCCCNC(=S)NNC(=O)c1cccnc1	-0.14
CCc1ccc(Nc2nnc(SCC(=O)Nc3cccc(S(=O)(=O)NC4=NCCCCC4)c3)s2)cc1	-0.205
CCc1nnc(NC(=O)CN2CCOCC2)s1	0.409
c1ccc2c(CCNc3ncnc4nc[nH]c34)cccc2c1	-0.86
Cc1ccc2nnc(Cl)n2n1	0.23
O=C(Cn1nc(-c2ccccc2F)ccc1=O)NCc1ccc2c(c1)OCO2	-0.15
CCn1c(Cc2cccs2)nnc1SCC(=O)Nc1ccc(OC)c(OC)c1	-0.278
CC(C)COc1ccc(Cc2cnc(N)nc2N)cc1	active: 7.02
CCc1ccc(OCC(=O)N2CCN=C2c2ccccc2)cc1	-0.751
Cc1ccc(-n2nnnc2-c2cnn(-c3ccc(F)cc3)c2C(F)(F)F)cc1	-0.0832
CCn1c(N)c(C(N)=O)sc1=S	0.203
Cc1ccc(S(=O)(=O)N/N=C\c2ccc(C)o2)cc1	-0.111

SMILES	z-score
CCOC(=O)N1CCN(C(=O)CCNS(=O)(=O)c2cc(Br)cnc2N)CC1	-0.318
CCCS(=O)(=O)N1CCN(Cc2ccc([N+](=O)[O-])cc2)CC1	-0.0547
O=[N+]([O-])c1ccc(Cl)c(CN2CCSCC2)c1	-0.333
COc1ccc(COC(=O)NNC(=O)c2ccccc2Cl)cc1	0.289
CN(C)S(=O)(=O)c1ccc(C(=O)NCc2cccs2)cc1	0.819
Cc1cc(C)n2nc(SCC(=O)N/N=C/c3cccc(Br)c3)nc2n1	-0.0108
COc1ccc(-c2nc(-c3ccc(Br)cc3)no2)c(OC)c1	-0.0711
CN(C)S(=O)(=O)N1CCN(S(=O)(=O)N(C)C)CC1	-0.552
Cn1nnc2cc(C(=O)NCc3ccc4c(c3)OCO4)ccc21	0.0433
CN(c1ccccc1C(=O)Nc1ccc(S(=O)(=O)N2CCCC2)cc1)S(C)(=O)=O	-0.101
CSCCC(NC(=O)c1ccc([N+](=O)[O-])cc1Cl)C(=O)OCC(=O)N(C)C (configuration not stated)	0.124
O=C(Nc1cc(C(=O)N2CCOCC2)ccc1N1CCCC1)c1cccs1	0.184
COc1ccc(C2(O)CC3CCC(C2)N3c2nc(C)cc(C)c2C#N)cc1 (configuration not stated)	-0.362
Nn1c(SCC(=O)Nc2ccc(Oc3ccccc3)cc2)nnc1C1CC1	0.0661
O=C(Nc1nc(-c2ccc(Cl)cc2Cl)cs1)c1ccc(OCC2CCCO2)cc1 (configuration not stated)	-0.323
CCOC(=O)C1=C(CSc2nc3c(cc2C#N)CN(C)CC3)OC(N)=C(C#N)C1c1ccc(F)cc1 (configuration not stated)	1.37
COc1ccc(CCNC(=O)c2ccc(=O)[nH]n2)cc1OC	0.0663
Cc1cccc(NC2=NC(C)(C)N=C(N)N2)c1C	-0.302
Cc1cccc(OCCCn2ccnc2)c1	0.218
